# In all, about 420,000 compounds went through this assay and about 50,000 (12%) were called active. Inconclusive results, whose numbers are uncertain, are shown with a selection of clear calls. Calls follow the shape of the dose curve; as a rule, active = well fitted inhibition curve with a large enough effect; inconclusive = small, poorly fitted or top-dose-only effect; inactive = flat fitted curve, though single readings scatter. Potencies of inconclusive entries are left out as doubtful fits.
# Test: qHTS for Inhibitors of human tyrosyl-DNA phosphodiesterase 1 (TDP1): qHTS in cells in presence of CPT; also: nearly all actives have a fitted effect of over 55% in size
# Conditions: chicken DT40 Tdp1-/-;hTDP1 cells + 20 nM CPT, ATP luminescence, 48 h; activity change, negative = growth inhibition: at 46.2 µM (top of the series)
# How it was run: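 Cell growth measured by CellTiter-Glo luminescence after a minimum 48 h, 37 C compound exposure with 20 nM CPT in Tdp1-knockout DT40 cells stably expressing hTDP1, seeded 400/well; qHTS titration format.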
# % is scaled to controls: 0 for no effect and ±100 for the full control effect; potency is read from the fitted curve at half-maximal effect; tags tell the direction and shape of the fitted curve.
SMILES,Potency,"activity change, negative = growth inhibition"
Cc1ccc(CNS(=O)(=O)c2ccc3c(c2)NC(=O)C(C)S3)cc1 (stereo not drawn),"inconclusive [inhibitor, single point]",–
COc1ccc(OC2C(=O)N(Cc3ccc4c(c3)OCO4)C2c2cccs2)cc1 (stereo not drawn),"inconclusive [inhibitor, partial curve]",–
Cc1cc(C)nc(SCC(=O)N2CCOCC2)n1,–,inactive: 10.7%
COc1ccc(NC(=O)CCCc2nnc3n(C)c(=O)c4sccc4n23)cc1,–,inactive: -0.725%
O=C(Nc1cccc([N+](=O)[O-])c1)Nc1ccc2c(c1)OCCO2,"inconclusive [inhibitor, single point]",–
O=C(C[C@H]1CC[C@H](NC(=O)Nc2ccccc2F)[C@@H](CO)O1)NCc1ccc(-c2ccccc2)cc1,"inconclusive [inhibitor, partial curve]",–
COc1ccc(NC(=O)CN2CCN(c3c(C)cccc3C)CC2)cc1,"inconclusive [inhibitor, single point]",–
O=C(O)C1CCC(=O)N1Cc1ccccc1Cl (stereo not drawn),–,inactive: -0.6%
OCCNCCCCOc1ccc(OCc2ccccc2)cc1,"inconclusive [inhibitor, single point]",–
O=C(Cc1nc(-c2ccc([N+](=O)[O-])cc2)cs1)Nc1ccccc1,active: 22.4 µM,–
O=C(Nc1cccc(-c2cn3ccccc3n2)c1)c1cnccn1,"inconclusive [inhibitor, single point]",–
C=CCn1c(=NC(=O)c2cc(Cl)sc2Cl)sc2cc(S(N)(=O)=O)ccc21,"inconclusive [inhibitor, single point]",–
CCCN(CCC)CCCNC(=O)Cn1ncc2c3ccccc3n(Cc3ccc(F)cc3)c2c1=O,active: 18.4 µM,–
CN1C(=O)c2ccccc2C(C(=O)O)C1c1cn(C)c2ccccc12 (stereo not drawn),"inconclusive [inhibitor, single point]",–
C#CCN1C=CC(=O)[C@@H](OC(=O)Nc2ccccc2Br)[C@H]1c1ccccc1Br,active: 23.1 µM,–
CN(C)C(=S)NC(=O)c1cccc(Cl)c1,"inconclusive [inhibitor, single point]",–
COCC(=O)N[C@H]1C=C[C@@H](CC(=O)OC)O[C@@H]1CO,–,inactive: -1.89%
CCOC(=O)c1ccc(N2C(=O)c3n[nH]c(-c4cccs4)c3C2c2ccc(C)cc2)cc1 (stereo not drawn),–,inactive: 0.952%
O=C(CCl)Nc1cccc(CP(=O)(c2ccccc2)c2ccccc2)c1,active: 3.26 µM,–
COc1ccc(N2CCN(C(CNC(=O)C(C)(C)C)c3cccnc3)CC2)cc1 (stereo not drawn),–,inactive: -9.03%
Cc1cc2ccccc2n1-c1ccc(C(=O)N2CCCCC2)s1,"inconclusive [inhibitor, single point]",–
CC1CN(S(=O)(=O)c2ccc(Cl)c(S(=O)(=O)N3CC(C)OC(C)C3)c2)CC(C)O1 (stereo not drawn),"inconclusive [inhibitor, single point]",–
CCOC(=O)C1=C(C)N(c2ccc(OC)cc2)C(=O)/C1=C\c1cccs1,"inconclusive [inhibitor, single point]",–

SMILES,Potency,"activity change, negative = growth inhibition"
CCOc1ccc(CCNC(=O)COC(=O)C2CCN(c3ccc(C(F)(F)F)cn3)CC2)cc1OCC,"inconclusive [inhibitor, single point]",–
O=C1NC(=S)S/C1=C\c1cc(Cl)cc(Cl)c1O,"inconclusive [inhibitor, single point]",–
COc1ccc(N2CCN(C(=O)c3ccc4c(=O)n(CC5CCCO5)c(=O)[nH]c4c3)CC2)cc1 (stereo not drawn),"inconclusive [inhibitor, single point]",–
COCCCNC(=O)CCCn1c(=O)c2cccn2c2cccnc21,–,inactive: 0.169%
COc1ccc(CN2C(=O)C(CC(=O)NCCc3ccccn3)CC(C(=O)N(C)C)=C2C)cc1 (stereo not drawn),–,inactive: 24.7%
O=C(NCc1ccc2c(c1)OCO2)C1CCN(S(=O)(=O)c2cccs2)CC1,–,inactive: -19.8%
Cc1nc(C)c(-c2ccc(SCC(=O)Nc3ccccc3F)nn2)s1,"inconclusive [inhibitor, single point]",–
CC(C)(C)c1ccc(-c2noc(CCC(=O)Nc3cccnc3)n2)cc1,"inconclusive [inhibitor, single point]",–
CC(C)(c1ccccc1)c1ccc(OCC(O)CN2CCCC2)cc1 (stereo not drawn),"inconclusive [inhibitor, single point]",–
CCOC(=O)C1(Cc2ccc(Cl)cc2)CCN(CCCn2cccn2)CC1,"inconclusive [inhibitor, single point]",–
COC(=O)c1ccc(CSc2n[nH]c(-c3ccccc3)n2)o1,–,inactive: -8.01%
Cc1c(C(=O)NCCCN2CCCC2=O)cnn1-c1ncc2c(n1)-c1ccccc1CC2,–,inactive: 5.06% [at 9.04 µM]
CN(C)c1ccc(S(=O)(=O)N2CCCCC2)cc1NC(=O)COc1ccccc1F,"inconclusive [inhibitor, single point]",–
O=C(CN1C(=O)CCSc2ccc(S(=O)(=O)N3CCCC3)cc21)NCc1ccccc1Cl,–,inactive: 1.25%
Cc1ccc(C(=O)c2c3ccc([N+](=O)[O-])cc3[n+]([O-])n2CCCC(N)=O)cc1,active: 5.8 µM,–
Cc1ccc(NC(=S)NCCN(C2CCCCC2)C2CCCC2)cc1,"inconclusive [inhibitor, single point]",–
CC[C@]12c3[nH]c4ccc(Cl)cc4c3CCN1C(=O)[C@@H](CC(=O)NCCC1=CCCCC1)C[C@@H]2C(=O)N1CCN(C(=O)c2ccco2)CC1,active: 20.6 µM,–
Cc1cc(C)n2cc(COc3ccc4ccccc4c3)nc2n1,"inconclusive [inhibitor, single point]",–
Cc1ccccc1N1CCN(C2CCCN(C(=O)c3ccsc3)C2)CC1 (stereo not drawn),"inconclusive [inhibitor, single point]",–
Cc1ccc(S(=O)(=O)Nc2c(C)n(C)n(-c3ccccc3)c2=O)cc1C(=O)OC(C)C(=O)N(C)c1ccccc1 (stereo not drawn),–,inactive: -14.5%
CCOC(=O)c1[nH]c2ccccc2c1NC(=O)c1ccc(OC(C)C)cc1,"inconclusive [inhibitor, partial curve, poor fit]",–
Cc1c(CNCc2cccs2)c(C(=O)O)c(C)n1Cc1ccccc1,–,inactive: -22.9%
COc1ccc(N(C(C)C(=O)N(C)Cc2ccccc2)S(C)(=O)=O)cc1 (stereo not drawn),–,inactive: -7.91%

SMILES,Potency,"activity change, negative = growth inhibition"
Cc1cccc(N(Cc2ccccc2)C(=O)c2cc(S(=O)(=O)N3CCOCC3)ccc2F)c1,active: 18.4 µM,–
CSc1cccc(NC(=O)NNC(=O)C2CCN(S(=O)(=O)N(C)C)CC2)c1,–,inactive: -5.78%
CCOc1c(Cl)cc(CNCc2ccncc2)cc1OC,"inconclusive [inhibitor, single point]",–
Cc1ccc(C)c2[nH]c(=O)c(C(c3nnnn3C(C)(C)C)N3CC=C(c4ccc(F)cc4)CC3)cc12 (stereo not drawn),"inconclusive [inhibitor, single point]",–
CCCCn1c(COc2cccc(OC)c2)nc2ccccc21,"inconclusive [inhibitor, single point]",–
c1ccc2c(N3CCCCCC3)nc(-c3ccncc3)nc2c1,"inconclusive [inhibitor, single point]",–
CCC(C)C(Nc1ncnc2scc(-c3ccccc3)c12)C(=O)O (stereo not drawn),–,inactive: -0.799%
Cc1onc(-c2ccccc2)c1C(=O)OCC(=O)Nc1ccc(Cl)cc1,"inconclusive [inhibitor, full curve, poor fit]",–
O=C(Nc1ccc(Br)cc1Cl)c1ccc(OCC2CCCO2)cc1 (stereo not drawn),"inconclusive [inhibitor, partial curve]",–
COc1cccc(-c2csc(NNC(=O)c3cccs3)n2)c1,"inconclusive [inhibitor, single point]",–
CC(C)c1ccccc1OCC(=O)NC1CCCc2ccccc21 (stereo not drawn),"inconclusive [inhibitor, single point]",–
COc1ccc(Cc2c(-c3cccc(Br)c3)nc3c(C)cc(Br)cn23)c(C)c1,"inconclusive [inhibitor, single point]",–
O=C(c1ccc(CS(=O)Cc2ccccc2Cl)o1)N1CCN(C2CCCCC2)CC1 (stereo not drawn),"inconclusive [inhibitor, single point]",–
COc1ccc(-n2nc3c(N4CCCC(C(=O)NCc5ccccc5C)C4)nnc(C)c3c2C)cc1 (stereo not drawn),active: 2.91 µM,–
Cc1cc(C(=O)Cn2cc(C(F)(F)F)ccc2=O)c(C)n1-c1ccccc1,"inconclusive [inhibitor, single point]",–
C=CCn1c(N)cc(=O)nc1SCC(=O)Nc1ccccc1C(N)=O,–,inactive: -2.96%
O=C(NCCn1cc(SCc2ccc(C(F)(F)F)cc2)c2ccccc21)c1cccs1,"inconclusive [inhibitor, single point]",–
COc1ccc(Cl)cc1NC(=O)CN1C(=O)NC(Cc2c[nH]c3ccccc23)C1=O (stereo not drawn),"inconclusive [inhibitor, single point]",–
Cc1cc(C)nc(NC(=NCCc2c[nH]c3ccccc23)NC(=O)C(C)(C)C)n1,"inconclusive [inhibitor, single point]",–
COc1ccc(-c2[nH]nc3nc(N4CCN(C(=O)c5ccoc5)CC4)cc(C(F)(F)F)c23)cc1,active: 8.2 µM,–
Cn1nc(C(C)(C)C)cc1NC(=O)C1(C)CCN1C(=O)C1(c2ccccc2)CCCC1 (stereo not drawn),"inconclusive [inhibitor, single point]",–
Cc1ncc([N+](=O)[O-])n1CCOC(=O)NC(NCc1cccnc1)C(Cl)(Cl)Cl (stereo not drawn),"inconclusive [inhibitor, single point]",–
